According to PubChem BioAssay AID588591 (National Center for Advancing Translational Sciences (NCATS), 2011):
About 4,700 (1.2%) of roughly 390,000 compounds were called active. Inconclusive means that the source gave no clear call. Such entries were picked first, then a sample of the others. Calls follow the shape of the dose curve; as a rule, active = well fitted inhibition curve with a large enough effect; inconclusive = small, poorly fitted or top-dose-only effect, or another doubt; inactive = no such curve, though single readings can be large or run the other way. Potencies beside an inconclusive call are fits to weak or partial responses and may not hold up.
% is scaled to controls: 0 for no effect and ±100 for the full control effect; potency is read from the fitted curve at half-maximal effect; tags tell the direction and shape of the fitted curve.

The compounds below were run against DNA polymerase eta (Homo sapiens) (UniProt Q9Y253) (assay: qHTS for Inhibitors of Polymerase Eta). Settings: recombinant Pol eta, fluorescent DNA replication assay; series mostly up to 114 µM; activity change, negative = inhibition: at the top concentration.
Sequence of UniProt Q9Y253 (Q9Y253 whole entry, looked up): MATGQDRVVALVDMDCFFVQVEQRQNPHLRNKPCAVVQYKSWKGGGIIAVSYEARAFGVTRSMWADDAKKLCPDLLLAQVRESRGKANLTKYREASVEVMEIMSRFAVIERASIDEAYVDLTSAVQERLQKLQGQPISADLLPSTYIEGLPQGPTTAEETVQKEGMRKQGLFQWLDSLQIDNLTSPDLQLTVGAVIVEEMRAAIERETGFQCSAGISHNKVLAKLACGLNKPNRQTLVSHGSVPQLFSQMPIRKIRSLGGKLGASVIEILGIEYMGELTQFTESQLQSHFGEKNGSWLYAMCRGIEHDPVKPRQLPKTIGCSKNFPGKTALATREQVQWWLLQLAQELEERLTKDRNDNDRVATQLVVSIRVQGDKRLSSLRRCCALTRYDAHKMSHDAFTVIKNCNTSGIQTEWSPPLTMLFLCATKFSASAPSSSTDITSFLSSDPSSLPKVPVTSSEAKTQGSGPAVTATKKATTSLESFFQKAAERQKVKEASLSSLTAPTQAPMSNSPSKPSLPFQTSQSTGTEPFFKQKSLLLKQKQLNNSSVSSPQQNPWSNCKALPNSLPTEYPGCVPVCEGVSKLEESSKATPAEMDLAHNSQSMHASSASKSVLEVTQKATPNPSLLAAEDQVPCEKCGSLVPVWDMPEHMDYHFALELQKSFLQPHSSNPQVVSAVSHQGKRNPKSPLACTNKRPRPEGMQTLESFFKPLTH
In short: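 Pol eta at 10 nM preincubated with compounds 15 min at room temperature; reaction started with fluorescent substrate (50 nM final) and read kinetically at 0 and 10 min.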
For CCOc1ccccc1N1CC(C(=O)NCCc2ccc(S(N)(=O)=O)cc2)CC1=O (stereo not given), the Potency was inconclusive: 39.8 µM [inhibitor, partial curve, poor fit].
Cc1ccc(C2C=C(c3ccc(Cl)cc3)Nc3nc(NS(=O)(=O)c4ccccc4)nn32)cc1 (stereo not given) was tested, and the Potency was inconclusive: 39.8 µM [inhibitor, single point].
Cc1cc(C)cc(OCC(=O)NNC(=O)c2cc3ccccc3oc2=O)c1 was tested, and the Potency was inconclusive: 35.5 µM [inhibitor, single point].
With CCN(CC)C(=O)CSc1nc2ccc(NC(=O)CSc3nnc(N)s3)cc2s1 the Potency was active: 11.2 µM.
With CC(=O)N1N=C(c2ccc(C)cc2)CC1c1ccco1 (stereo not given) the “activity change, negative = inhibition” value was inactive: -17.4%.
In the case of Cc1cccc(NC(=O)c2cccc(S(=O)(=O)N(C)c3ccccc3)c2)n1, the Potency is reported as inconclusive: 39.8 µM [inhibitor, partial curve, poor fit].
With CCc1ccc(CCC(=O)Nc2sc3c(c2C#N)CCCC3)o1 the Potency was inconclusive: 89.1 µM [inhibitor, partial curve, poor fit].
In the case of Cc1ccc(C(=O)N(C)c2nnc(-c3ccncc3)s2)cc1, the “activity change, negative = inhibition” value is reported as inactive: -4.13%.
Cc1ccc2nc(/C(C#N)=C\c3ccc(Oc4ccc([N+](=O)[O-])cn4)cc3)[nH]c2c1 was tested, and the Potency was inconclusive: 11.2 µM [inhibitor, partial curve].
In the case of COc1ccc(-n2c(C)cc(C(=O)CCl)c2C)cc1, the Potency is reported as inconclusive: 35.5 µM [inhibitor, full curve].
Cc1[nH]c(C(=O)N/N=C/c2ccc(C(=O)O)cc2)c(C)c1C(=O)N/N=C/c1ccc(C(=O)O)cc1 was tested, and the Potency was inconclusive: 14.1 µM [inhibitor, partial curve, poor fit].
For O=C(NC1CCCCC1)c1cc(Nc2cccc(C(F)(F)F)c2)nc2ccccc12, the “activity change, negative = inhibition” value was inactive: 4.95%.
For Cc1ccn2c(Nc3ccccc3C)c(-c3ccccn3)nc2c1, the Potency was inconclusive: 79.4 µM [inhibitor, partial curve].
For CCn1nnc(NC(=O)CSc2ccc(Cl)cc2)n1, the Potency was active: 50.1 µM.
For CC(C)Sc1nc(NCc2ccco2)c2c3c(sc2n1)COC(C)(C)C3, the Potency was inconclusive: 12.6 µM [inhibitor, full curve, poor fit].
With COc1ccc(/C=C/C(=O)Nc2cc(C(F)(F)F)ccc2Cl)cc1OC the Potency was inconclusive: 79.4 µM [inhibitor, partial curve, poor fit].
O=C(CSc1ccsc1[N+](=O)[O-])Nc1cccc(F)c1 was tested, and the Potency was active: 22.4 µM.
In the case of O=C(Cn1nnc(-c2ccc(CN3CCOCC3)cc2)n1)N1CCCc2ccccc21, the “activity change, negative = inhibition” value is reported as inactive: -8.76%.
In the case of CCOC(=O)c1c(N)n(-c2cccc(OC)c2)c2nc3ccccc3nc12, the “activity change, negative = inhibition” value is reported as inactive: -3.33%.
In the case of CCOCCCNc1nc(C)nc2c1nnn2Cc1c(F)cccc1Cl, the “activity change, negative = inhibition” value is reported as inactive: -8.96%.
COc1ccc(NC(=O)C2Cc3ccccc3N2C(=O)c2ccccc2)c(OC)c1 (stereo not given) was tested, and the “activity change, negative = inhibition” value was inactive: -2.86%.
With CCOc1ccccc1NC(=O)c1cc2c(Cl)nc3ccccc3c2s1 the “activity change, negative = inhibition” value was inactive: -14%.
With COc1cccc(/C=N/Nc2c(Cl)cncc2Cl)c1O the Potency was inconclusive: 15.8 µM [inhibitor, full curve, poor fit].
In the case of Cc1cc(C)nc(NC(=O)CSc2nc3cc(Cl)ccc3s2)n1, the Potency is reported as inconclusive: 7.94 µM [inhibitor, partial curve].
For COc1cccc2cc(C(=O)CS(=O)(=O)c3ccc(C(C)(C)C)cc3)c(=O)oc12, the Potency was active: 89.1 µM.
Cc1c2cc[n+](CCN3CCCCC3)cc2c(C)c2c1[nH]c1ccc(O)cc12 was tested, and the Potency was active: 2.82 µM.
For O=C(CCC1N=C2c3ccccc3N=C(SCc3ccccc3F)N2C1=O)NC1CCCCC1 (stereo not given), the “activity change, negative = inhibition” value was inactive: -28.7%.
With COc1ccc(C(=O)COC(=O)c2ccccc2O)c(OC)c1 the Potency was active: 25.1 µM.
In the case of Cc1ccc(NC(=O)c2cccc(NC(=O)/C=C/c3ccco3)c2)cc1C, the Potency is reported as inconclusive: 12.6 µM [inhibitor, full curve, poor fit].
With CCCc1nn2c(=O)cc(COc3cccc(NC(=O)c4ccco4)c3)nc2s1 the Potency was inconclusive: 56.2 µM [inhibitor, partial curve, poor fit].
With Cc1c(N)cc(S(=O)(=O)O)cc1NC(=O)c1cccc([N+](=O)[O-])c1 the Potency was active: 28.2 µM.
CCC(NC(=O)CCc1c(C)c2cc3c(C)c(C)oc3cc2oc1=O)C(=O)N[C@@H](Cc1ccccc1)C(=O)O (stereo not given in full) was tested, and the Potency was inconclusive: 56.2 µM [inhibitor, partial curve, poor fit].
In the case of Cn1c(=O)n(-c2ccc(F)c(Cl)c2)c(=O)c2sc3ccccc3c21, the “activity change, negative = inhibition” value is reported as inactive: -4.51%.
For CC/C(=N\NC(=O)c1ccccc1Cl)c1ccc(Br)s1, the Potency was inconclusive: 3.16 µM [inhibitor, full curve, poor fit].
In the case of CCOC(=O)c1[nH]cnc1N=Nc1c(O)ccc2ccccc12, the Potency is reported as inconclusive: 14.1 µM [inhibitor, full curve, poor fit].
In the case of COC(=O)N/N=C/c1ccc(OC(=O)/C=C/c2ccco2)cc1, the Potency is reported as inconclusive: 56.2 µM [inhibitor, partial curve, poor fit].
For Cc1c(Cl)cnc(NC(=O)COC(=O)CCC(=O)c2cccs2)c1Cl, the Potency was inconclusive: 39.8 µM [inhibitor, partial curve, poor fit].
O=CNc1ccccc1 was tested, and the “activity change, negative = inhibition” value was inactive: -0.794%.
For O=C1c2ccccc2C(=O)N1CCSc1n[nH]c(=S)s1, the “activity change, negative = inhibition” value was inactive: -20.2%.
For CC1CCC2(CC1)NC(=O)N(NC(=O)c1cc3ccccc3o1)C2=O (stereo not given), the Potency was inconclusive: 100 µM [inhibitor, single point].
With Nc1nc(Nc2cccc(Cl)c2)nc(NCc2ccco2)c1[N+](=O)[O-] the Potency was inconclusive: 89.1 µM [inhibitor, partial curve, poor fit].
For COc1ccc(C2NC(=O)c3sc4nc(C)c(C(C)=O)c(-c5ccc(Cl)cc5)c4c3N2)cc1 (stereo not given), the Potency was inconclusive: 25.1 µM [inhibitor, partial curve, poor fit].
With COc1cc(/C=C/C(=O)Nc2ccncc2)cc(OC)c1OC the Potency was inconclusive: 70.8 µM [inhibitor, partial curve, poor fit].
For Cc1ccccc1OCC(=O)N/N=C/c1cccc2cccnc12, the “activity change, negative = inhibition” value was inactive: -1.9%.
COc1cccc(/C=N/NC(=O)c2cc3c(OC)c(OC)ccc3[nH]2)c1OC was tested, and the Potency was inconclusive: 56.2 µM [inhibitor, partial curve, poor fit].
